The supplement of paper PMC3334620
Whole data set: some 33,000 sequences, median “E-score (-0.5 to 0.5)” near -0.01, cut for the highest 2% near 0.26. The list shows a part of the results.

What follows are sequences tested against Ste12 (UniProt P13574) (assay: PBM E-score (8-mer binding enrichment) (E-score (-0.5 to 0.5)); higher = stronger / more preferred TF binding; most listed sequences are background and not binding sites). Conditions: protein concentration: 200 nM; construct: GST-DNA-binding domain.
In short: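 Detection of bound protein used fluorescent anti-GST, with scans normalised by masliner. The proteins were GST-tagged yeast transcription factors applied at about 100-200 nM to universal all-10-mer Agilent arrays made double-stranded by primer extension. Each ungapped eight-base word, pooled with its reverse complement, was scored with an E-score from the Universal PBM Analysis Suite.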

Sequence | PBM E-score
CCCGAATC | -0.00223
TCGCCTCA | -0.0386
GTATGCGA | -0.0958
AGCGTACC | -0.146
ATTATTTA | 0.281
ATATTCGA | -0.151
TCTCTCCA | -0.0624
TCCCAGAA | -0.0433
CCTTACTA | 0.0617
ACACTGTA | 0.0565
CAAGGACC | -0.14
ATCCTCCC | -0.0174
AGGCGGGG | 0.269
CATTACCA | 0.019
ACGTGTAA | -0.074
AAGCGCAG | -0.0659
CCGGGGCC | 0.0185
CCCCCCCC | -0.275
TCGAGACA | -0.0424
CAAACTTC | 0.124
AGGTACTA | 0.00059
CCCTGGGC | -0.133
CCGTGTCA | 0.111
TCGACTAA | 0.0302
ATTCCTGA | 0.144

Sequence | PBM E-score
AAATGACA | -0.0446
CTGCTACA | 0.0671
CGCGGAGA | 0.00397
AAGGATCG | 0.0415
CCCACAAG | -0.133
CAAGGAGC | -0.157
CACTTAGC | -0.179
ACTTGTGG | 0.116
CCTGTTCA | -0.108
AAATTTTC | 0.105
CATGACTA | -0.176
AATTAATG | 0.232
ACCTATCC | -0.00379
CGTCCAGC | -0.127
GCATGAGC | -0.0419
ACACAGGA | 0.0461
ATTGTGGC | 0.0287
AAACGACC | 0.161
AAACCTCA | 0.256
GAATGAGC | -0.0246
GAGCTGGC | -0.0837
GAGGACGC | -0.101
CCGTAGTC | -0.122
GTCCGATA | -0.0862
CACGGACC | -0.162

Sequence | PBM E-score
AACCCTAG | -0.108
TGTCGCAA | 0.191
CCCCGGTA | -0.299
CACCCCCC | -0.314
AGTATCCG | 0.0221
ATATCCGA | 0.0934
ACGGAGTC | -0.0702
AAAACAGC | 0.127
AACGTCTC | 0.108
CTACGCTA | -0.213
AATAGTCA | -0.0559
AGCAGGCC | -0.109
AATCATGG | 0.0534
ATTTAAGG | 0.00576
TGAGGGAA | -0.0588
ATTAATAA | 0.289
ATCTCCGG | 0.12
ATCCTATG | -0.0158
AACGAGCA | 0.0898
GCTCCAAA | -0.0614
CTAGTCTC | -0.0743
ATAATAGC | -0.0379
CAACGCAC | -0.0698
AATGAGGT | 0.0381
CCCTACAC | -0.0205

Sequence | PBM E-score
CGTCATCA | 0.0862
TACACGTA | -0.00219
CTGTGAGC | -0.0343
ATCTCGAA | 0.0143
ATTTCTGG | 0.205
GGAGGATA | -0.0611
AGACCTAA | -0.0879
CAATCCCC | 0.0988
TCTAGAAA | 0.013
TAATACGA | 0.0708
AAGTTAAG | 0.00371
ATTAGTGG | 0.085
ACCGTTTA | 0.059
CTCTATAC | -0.153
AGCGCTAA | -0.0312
CATGCCGA | -0.0901
ATACTCAA | 0.127
CTCCAACA | 0.0733
CATACGAC | -0.0204
CATTAGGC | -0.175
AGTTCAAC | 0.12
CAACTGTG | -0.123
AGGGGGCG | -0.196
AGTCTACA | -0.127
ACGACCTA | -0.0371

Sequence | PBM E-score
ACCTTCCA | -0.0033
AGGGCTTA | -0.165
AGCGTGAG | -0.0745
ATGCAGTG | -0.00142
AATTCGCT | 0.0856
CGGACTCA | 0.00205
TAACAAGA | 0.234
AATAACCC | 0.0955
AATGTGGT | 0.0761
GGACTCCC | -0.237
AAATACAG | 0.0839
GATATGAC | 0.0645
ATGGACTC | -0.125
ATTCAACG | 0.0125
ATTGTAAA | 0.215
ACCTATAC | 0.0614
CTGGGTCA | -0.169
TATAGATA | 0.00949
CATGTGCG | -0.0345
AAATAAAT | 0.169
AGTGGTGG | -0.0364
GAGCTGTA | -0.203
CCCTGTTA | 0.279
GGCGGCAC | -0.00774
CGTGCCAA | -0.0801

Sequence | PBM E-score
CGTCACTC | -0.0658
TCACGCAA | 0.147
AGGGGCTA | -0.0204
TGCTCGAA | -0.0595
CCCTAAAC | -0.0553
ATAGAATG | 0.0775
CGCGAGCA | -0.143
GTTTCTGA | 0.237
AACCAGAT | -0.0314
GGGAGTTA | -0.0784
CGGACCAA | -0.096
CGGGTCTC | 0.0262
AGACTAAC | 0.00023
ACCGTAAC | 0.0248
AAGCCCCC | -0.188
CTAAACGC | 0.12
GCATGGGC | -0.0951
TACCACCA | -0.0369
ATTTCTGA | 0.131
CCCTCATA | -0.00219
GGCCTGCA | -0.162
ATACTTAG | 0.13
AGTTTTCG | 0.06
GGGGCAAC | -0.169
ATTCGCTG | 0.0593

Sequence | PBM E-score
AACCGCTT | 0.0658
ATCGGGAG | -0.199
GACCGCGC | 0.0476
CGAGAAAC | 0.0131
AAGCGGAC | -0.0961
ACCGGGGC | -0.00737
CACGGTGG | 0.0859
GCGAAGTA | -0.137
ACGGTGAC | -0.0201
ATCGACAC | -0.00445
CTTCACAA | -0.0638
ACAATGAG | -0.00083
CCACGCTC | -0.153
GATAGTAC | -0.00566
ATCTTTCG | 0.14
AACAGTGG | 0.0219
CCTACCCC | -0.0986
ACATAAAA | 0.17
AAATCAGA | 0.122
CAACCTGG | -0.107
CCCCGGAA | -0.11
CTGCCGAC | -0.00908
ACTTGTCT | -0.0183
AGACGGGA | -0.012
ATTCTCCA | 0.145

Sequence | PBM E-score
CCCCCACA | -0.198
CCACGCCC | -0.12
ACGTCGAT | 0.0744
ACTAACTC | -0.114
CTGATAAG | 0.0484
CAATTAGC | 0.0432
CCGTCATA | 0.157
ACACTTTA | 0.0929
ACCAATCA | 0.0653
GTCTTTCA | 0.00039
ACGTTTGC | -0.135
ACAGACAT | -0.0493
TACCATGA | -0.0381
AGGGCCCG | 0.0968
ATCGGACC | -0.158
GACGCCAC | -0.13
AAGGAAGC | 0.0847
TAGAACCA | -0.12
GTAGCAGA | 0.156
CCCCCAAC | -0.0757
ACCCCGCG | -0.0209
CCTGTGGA | -0.198
GCAAGATA | 0.0328
ACGCTAAC | -0.0227
GCGACCGC | -0.103

Sequence | PBM E-score
ATGCCGGC | 0.0346
GTGCTGGA | -0.136
CTAGATGA | -0.00199
CAGGCACA | -0.26
AGAGGTGC | -0.253
GAGGTTTA | 0.014
GTAATAAC | 0.0516
GCTGGTCA | -0.0653
ATATGCAG | -0.108
AACTGTCT | -0.0653
CCGTTTAG | -0.0272
ATGGTGGA | -0.0486
CCTCAAAG | -0.211
AGCAGTGA | -0.0211
AGGGTCGA | 0.0187
ACCTCAGT | 0.0429
AGTGAGTC | -0.194
GCCCTTCC | -0.0896
CAATTTGC | 0.00867
AAGCGTTA | -0.0692
ATTTAGAG | 0.173
TAAGTGTA | 0.0872
ATCTCTCA | 0.165
GCTGGGAA | 0.0695
ACTGCGGC | -0.0139

Sequence | PBM E-score
CGTAACGA | -0.0713
CGTTCGCA | -0.119
CCGGGTAG | -0.118
CGCACCCC | -0.0205
TTAGCCAA | -0.0076
TAACAGAA | 0.249
GAGGCTCA | -0.23
GCATACAC | -0.218
AAATATAG | 0.17
AGACTACG | -0.276
CGACCCCG | 0.0973
CGCTTAAA | 0.154
CATTTTGA | 0.144
ATTATTCA | 0.111
TAAGGATA | 0.0921
CCTTTATC | -0.0768
CTCCCAGC | -0.0704
GTGTGAGA | 0.0959
AATCTACG | 0.0245
AATCAATG | 0.0688
GGTGCTAA | -0.0919
CGCGTGGC | -0.155
AATTCAGG | 0.152
CTCACAAA | 0.111
CACAACTA | 0.153

Sequence | PBM E-score
ATGGTTGA | -0.00188
ACGGCCAC | -0.0835
CAGTGTAC | -0.0739
TAACAATA | 0.239
CGGTTGCC | -0.143
CGGAATAG | 0.0664
TATCTTCA | 0.15
ACTGGAAT | 0.047
CGCAGGGC | -0.0726
GAGAGAAC | -0.0294
CACAAGCG | 0.0768
GCTCCTGA | -0.0216
AATGTTAG | -0.00616
GTGGGTTA | -0.0599
CAGATATG | -0.00623
ATTCTAGC | 0.0305
TCAAAGAA | 0.128
CATAATAC | 0.194
GCCATGCC | -0.077
GCATTGGA | -0.113
GAAGGGTA | 0.0573
ATACTAAT | 0.238
ATGTTTGG | 0.151
CCTCTACA | -0.00297
AAAGTTGA | 0.111

Sequence | PBM E-score
GGACGAAA | 0.139
CCAACAAC | -0.0652
AAGCGCCG | 0.172
GATCTTGA | 0.0478
AGAATAAT | 0.0748
TCTTGGAA | 0.0137
AGGCCACC | -0.0834
TAAAAGCA | 0.172
CTTCGGAA | 0.0054
GACCCCCC | -0.143
ATACTTCG | 0.00749
AGCATTTC | 0.137
CACTTAAA | 0.287
AGGCTCAC | -0.164
AATCTTCG | -0.04
CGGTGATC | 0.0826
TGAACGCA | -0.00594
AGCCGACA | -0.204
CTATCTCC | -0.0626
AACTGTCG | -0.0342
AGCGACAC | 0.0304
CCTTCTTC | -0.0872
AATCCTCC | 0.0478
ACGGCTGA | -0.0682
CCCCAGCC | -0.0945

Sequence | PBM E-score
CGTCGCCC | -0.121
AATCCCAC | -0.00232
GCTCCAGA | -0.0645
ACGGACGG | -0.0823
CGATAGGA | -0.142
CACAGCTA | -0.172
ATGTGGGC | -0.0188
CATTACGC | -0.11
GGAGATTA | -0.158
GAAAACAA | 0.197
TGGGCCAA | -0.177
AAGCGATG | -0.0869
ATGTATAA | 0.0504
ATGGAAGA | 0.146
CAGGTGGG | 0.00583
CAAGATAC | 0.0209
ATAAGCAT | -0.0583
AATAGGGC | -0.178
ACTTTCAT | -0.0303
ATCAGAAA | 0.111
AACGCCCC | 0.203
ATTCTCAG | 0.12
TGTAACAA | 0.333
CAGGTGGA | -0.0546
CGTCTGAC | -0.15

Sequence | PBM E-score
CTAGTGAG | -0.0287
CTTAACTA | 0.0405
ATCTTAAG | 0.0605
CAAGCGGA | -0.119
GAGCCCCC | -0.11
CCTTGCTA | -0.0558
ATCTTAAA | 0.204
ACGGCTCT | -0.105
CAATAAGA | 0.021
ATCCCCGA | 0.0518
ATACTTCA | -0.106
AATATCAC | 0.107
AAGTCAAC | 0.0378
CAGCGACC | -0.0234
AGTTCTCG | -0.0126
TCGCCAAA | -0.0442
ATTTGCTG | 0.151
CCTCATTA | 0.133
GGAGGCGA | -0.119
